# In all, about 33,000 sequences were measured (“E-score (-0.5 to 0.5)”: median about -0.053, highest 2% from about 0.37 on). The list shows a part of the results.
# Biological target: Hap1 (UniProt P0CE41)
# Assay: PBM E-score (8-mer binding enrichment) (E-score (-0.5 to 0.5)); higher = stronger / more preferred TF binding; most listed sequences are background and not binding sites
# Details: protein concentration: 200 nM; construct: GST-DNA-binding domain
# Description: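 Universal 'all 10-mer' protein binding microarrays (Agilent AMADID 015681) probed with GST-tagged S. cerevisiae TFs (full-length or DBD) made by in vitro transcription/translation (PURExpress), about 100-200 nM. Bound TF was detected with fluorescent anti-GST. Each ungapped 8-mer (which stands for itself and its reverse complement) is scored by the PBM enrichment score (E-score), a modified Wilcoxon-Mann-Whitney statistic from -0.5 to +0.5, computed with the Universal PBM Analysis Suite. Scale: above 0.35 generally sequence-specific binding.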
# Chain of UniProt P0CE41 (P0CE41 whole entry): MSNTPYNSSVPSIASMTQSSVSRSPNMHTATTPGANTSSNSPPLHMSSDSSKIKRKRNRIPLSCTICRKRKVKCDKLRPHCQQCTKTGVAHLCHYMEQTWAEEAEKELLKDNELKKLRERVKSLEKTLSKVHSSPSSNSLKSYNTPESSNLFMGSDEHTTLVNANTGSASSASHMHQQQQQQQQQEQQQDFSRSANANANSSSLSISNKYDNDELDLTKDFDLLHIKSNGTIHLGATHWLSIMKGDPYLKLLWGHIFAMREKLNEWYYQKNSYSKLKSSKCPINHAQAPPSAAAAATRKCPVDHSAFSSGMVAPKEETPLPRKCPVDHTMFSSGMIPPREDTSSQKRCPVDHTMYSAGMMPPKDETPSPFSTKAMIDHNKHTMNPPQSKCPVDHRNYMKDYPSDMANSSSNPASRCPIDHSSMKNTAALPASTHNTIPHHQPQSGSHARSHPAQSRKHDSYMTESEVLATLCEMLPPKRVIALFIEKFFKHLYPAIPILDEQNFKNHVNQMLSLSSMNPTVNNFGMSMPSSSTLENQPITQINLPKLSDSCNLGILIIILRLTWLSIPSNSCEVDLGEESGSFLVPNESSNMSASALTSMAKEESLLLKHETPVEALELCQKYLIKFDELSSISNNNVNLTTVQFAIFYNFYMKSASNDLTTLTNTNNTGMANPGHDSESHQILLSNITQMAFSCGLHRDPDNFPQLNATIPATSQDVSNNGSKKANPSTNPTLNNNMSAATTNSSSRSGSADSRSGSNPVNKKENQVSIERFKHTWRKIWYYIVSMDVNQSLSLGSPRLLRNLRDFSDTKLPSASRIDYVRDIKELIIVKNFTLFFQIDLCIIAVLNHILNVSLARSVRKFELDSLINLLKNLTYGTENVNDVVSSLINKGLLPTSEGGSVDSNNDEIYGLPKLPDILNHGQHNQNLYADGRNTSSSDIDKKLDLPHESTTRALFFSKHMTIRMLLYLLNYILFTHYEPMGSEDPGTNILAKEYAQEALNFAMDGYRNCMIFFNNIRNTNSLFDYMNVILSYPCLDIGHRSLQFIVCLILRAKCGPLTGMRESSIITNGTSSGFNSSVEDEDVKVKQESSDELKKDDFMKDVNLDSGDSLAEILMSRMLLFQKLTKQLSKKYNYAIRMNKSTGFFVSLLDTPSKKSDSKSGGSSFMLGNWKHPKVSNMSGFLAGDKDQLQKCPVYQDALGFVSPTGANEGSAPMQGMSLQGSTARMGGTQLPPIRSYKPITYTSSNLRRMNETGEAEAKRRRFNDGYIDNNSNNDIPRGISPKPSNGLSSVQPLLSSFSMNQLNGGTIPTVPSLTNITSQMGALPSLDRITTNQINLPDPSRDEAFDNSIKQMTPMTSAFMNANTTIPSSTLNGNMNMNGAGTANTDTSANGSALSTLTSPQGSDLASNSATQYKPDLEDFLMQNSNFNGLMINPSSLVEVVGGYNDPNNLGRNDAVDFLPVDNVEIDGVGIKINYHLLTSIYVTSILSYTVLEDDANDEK
row,Sequence,PBM E-score
1,CGTTAGCA,0.0694
2,GACGAAAA,0.167
3,AGTTAGTA,-0.0745
4,ACTGCTAC,-0.0768
5,AGCCGGCT,0.25
6,AGGATCTG,-0.303
7,CTTAGCCC,0.0356
8,GCATAGCA,-0.201
9,AAGTTTAT,0.145
10,AGGTGCAC,-0.0598
11,GACCTTGC,-0.133
12,ACAGAAAA,-0.0222
13,CCGCAAGA,0.191
14,AGATCATA,-0.0882
15,AATATAGA,-0.137
16,AAACTCCT,-0.1
17,CACTACTA,0.00169
18,ATTCGCAA,-0.00869
19,AAAGGCAA,-0.202
20,CACCCATG,0.0203
21,GGGGTCTA,0.125
22,GTATCCCA,-0.135
23,GACGCCTC,-0.0997
24,GGGAATTA,0.236
25,CACTCTAA,-0.197

row,Sequence,PBM E-score
1,ACCGTTAC,0.132
2,GCAGTTAC,0.0164
3,CATTATAG,-0.0155
4,GTAAAGAA,-0.0559
5,CGAATGAC,0.135
6,AAGAAGGC,-0.169
7,CGTAGCTC,0.109
8,CATTTAAG,-0.223
9,TCGATTCA,-0.0308
10,CCTCATCA,-0.169
11,GTTACAGA,-0.214
12,ATCTCTCG,0.142
13,CCCACGCC,-0.103
14,ATACGAAT,-0.192
15,GTGACTTA,-0.171
16,ACGCCTGA,-0.116
17,CATTTGGC,-0.132
18,TATGCGCA,-0.0822
19,AAGGTAAG,-0.173
20,ATGACTTC,-0.0257
21,CGCAAGCC,0.0291
22,ACTTTCCT,-0.131
23,GACGGCAA,0.0858
24,CGTCGAGC,-0.122
25,TAACCCAA,-0.0641

row,Sequence,PBM E-score
1,TCATGGCA,-0.0941
2,CCCAATTC,-0.135
3,AGTAAGGA,-0.246
4,GGCAGGGA,-0.172
5,ACGCGACC,-0.094
6,CAATCGCG,0.115
7,AAGGTTAT,0.0892
8,AACCGAGT,0.157
9,CAAAGCTG,-0.0916
10,CCTGCGTA,-0.124
11,AACTGTTA,0.0162
12,AGTAGTAC,0.105
13,CAATAAGC,0.0423
14,ATATGAGC,-0.0439
15,GGCATACC,0.107
16,AGTGCGTG,-0.165
17,GACCGAAC,0.347
18,ATGAGACA,-0.0994
19,GCATCGCC,0.0583
20,GGCAAAGA,0.0812
21,ACACGTCG,0.00541
22,GAGTGGCC,0.144
23,AATGGTTC,-0.00195
24,AGCAGTCC,0.0132
25,CGCGCTGA,-0.0292

row,Sequence,PBM E-score
1,GACATTCA,0.113
2,ATAGATAC,-0.117
3,CCGTATGA,0.115
4,GTACACGA,-0.116
5,TTACTGAA,-0.162
6,TCTGCTCA,-0.356
7,CAAAAGGG,-0.161
8,CGCCTTAC,-0.112
9,GAAAAGAC,0.0224
10,CTAAGACA,-0.168
11,GACAAATC,0.077
12,GAAAAAAA,0.025
13,CCGGTTTC,0.317
14,AGGCCCTG,-0.219
15,CGGTTTTA,0.433
16,ACCATGTC,-0.0848
17,CATTCCCC,0.185
18,GCGTGACA,-0.104
19,CTGCTATA,0.0322
20,CCTAAGCA,-0.192
21,GCGCTGCC,-0.0134
22,GAAATGCA,0.125
23,CAATCGAG,-0.32
24,GGTAATTA,0.286
25,GACATGAC,-0.146

row,Sequence,PBM E-score
1,CCGAATTC,0.342
2,AAGCTCTA,-0.14
3,ATCACGGG,-0.00611
4,CGACGGCA,0.0843
5,GGAAGTAA,0.299
6,CGCTGGAA,0.0856
7,GATTTACA,0.044
8,AGTTTTTG,-0.0198
9,GCACCGAC,0.335
10,CACTACGA,-0.0719
11,GAAGCTGA,0.0793
12,AGATAACG,0.345
13,GGATTAGA,0.137
14,GGCAGGAC,0.0548
15,GCCTCCCA,-0.176
16,GAACGACA,-0.211
17,CATAATGC,0.091
18,CACTGTAC,-0.238
19,ACGTTGCT,-0.184
20,AACCCGCG,0.211
21,CATAGCAC,-0.0374
22,AACATGTG,-0.0547
23,CGGTGACA,0.209
24,CCCCGACG,0.379
25,CTAAACAG,-0.169

row,Sequence,PBM E-score
1,CTAGACGC,-0.263
2,CTAAAGAG,-0.201
3,ATTACTTA,0.122
4,CTTATTTC,0.122
5,CGTTACCA,-0.159
6,CCGTACCA,0.235
7,GTCATAAC,0.0512
8,CATTTAAA,0.0482
9,CCACCGGG,0.34
10,CCGGTTTA,0.258
11,AGGCCAGA,-0.0351
12,AAAAGTGC,0.00388
13,GAATCATA,-0.0958
14,CATCACTA,-0.201
15,CCAACGAA,-0.105
16,CTGAACCC,-0.114
17,AAGTAACC,-0.0991
18,GCGACAAC,0.0655
19,GAATTCTA,-0.0266
20,GTACTCCA,-0.112
21,GAAGTTCC,0.0636
22,TAGACCGA,0.282
23,CCTCATTC,-0.138
24,GCCTAATA,0.0381
25,ATGCGTCA,-0.125

row,Sequence,PBM E-score
1,ATCGTATG,-0.252
2,CTATAAAA,-0.0303
3,CACGACAC,-0.0689
4,CCACAAGA,-0.151
5,CCGGCGGC,0.364
6,ATAGCATG,-0.19
7,GGATAAAA,0.261
8,AGACACAC,-0.237
9,CGAACCCC,0.24
10,ATGTTGTC,-0.101
11,AGGTGCGC,-0.0927
12,CGGATTAA,0.365
13,CGCGTATA,0.0454
14,GTCCGAAC,0.426
15,AGGGGCAC,-0.243
16,CACAAACG,0.0846
17,CCGTGGAC,0.229
18,AGTGGACA,-0.0297
19,CGGGATAA,0.263
20,AGTTCAGG,-0.191
21,CACTAGAA,-0.0422
22,CGAATTTC,0.137
23,CACCTCCG,0.311
24,ATCTAGCG,0.00616
25,CCTTTGGC,-0.24

row,Sequence,PBM E-score
1,AACAACTA,-0.0145
2,TCCAGCGA,0.0435
3,CGAGGAGC,0.0181
4,GCAACTAC,-0.0604
5,CACGGGCC,0.289
6,GCTAGCCA,-0.144
7,CACGACTA,-0.32
8,CTCTATGC,-0.197
9,GTTACCGA,0.218
10,TAGAACAA,-0.273
11,CGTTGGTC,-0.0912
12,CCTTTCGC,0.0401
13,CACCGTAG,0.0891
14,ACTCCTAT,-0.141
15,CGCCCGCG,0.263
16,CGGGTACA,0.202
17,ACGAGCAC,-0.0683
18,ACCTTCAA,-0.293
19,CCATCTCA,-0.373
20,CAAGTCGC,-0.282
21,AGAAATTG,0.00463
22,CTACTCTC,0.0553
23,CCATCGCA,-0.199
24,GGCCTATA,0.0312
25,AATTTTAG,-0.294

row,Sequence,PBM E-score
1,AGTGCGGC,0.0776
2,ATACGCTC,0.0673
3,GCCAAGCA,-0.159
4,ATAGCCCC,0.134
5,CCATCAAA,-0.17
6,CAGATCAA,-0.138
7,GTATCATA,0.0287
8,ACGTCAGA,-0.342
9,CGGTGAAG,0.0684
10,AAGCCTTC,-0.0806
11,CTGGACTC,-0.113
12,AGTGGGAT,-0.0762
13,CCTTCCCA,-0.242
14,AAGACCCA,-0.277
15,CTAATACA,-0.0391
16,AAATAACA,-0.00712
17,GCACACGC,-0.208
18,CCAGAAGC,0.0652
19,TAATCTAA,-0.0545

# Source: the supplement of paper PMC3334620
